According to paper PMC12136788:
This is one part of the list.

B1: chr11:47008823:47008824:+_ENSG00000149179_ENST00000278460|hu_mus|FALSE|FALSE (ssRNA)
RNA: GGGAGUUCUACAGUCCGACGAUCUCCUUGGCAUACGCUGUUAAAAUAGUCAGUGAAGAACCGGGCAAUGCCAUACUGGCUAAUAUCCUCCCUGUUCUCCAGCAGCUGGCACACUGCAUCCUCCAUGUACGUGAGGACAUGUCUCAACAGAGGAUUGAGCAUCA
B2: 183116090_183117748_1239_CDS_ENSMUSG00000038733_ENSMUST00000162963|mouse|control|control (ssRNA)
RNA: GGGAGUUCUACAGUCCGACGAUCCUGACCACGCUGACCUCCCGUCACAAAGCGUUUCCCAUCUGGAUUCCAGGCCACACUGGUCAAACUGUCUUCAUGAGAUUGGCUCAUUUUUGUUCUUAAUUCUCCCGUCUGUACAUUCCACAACAGAGGAUUGAGCAUCA
B3: 21196780_21198168_765_CDS_ENSMUSG00000032178_ENSMUST00000067646|mouse|control|control (ssRNA)
RNA: GGGAGUUCUACAGUCCGACGAUCGACUGAUAGCGUUUCUCCAGCUAAUACUUUCUCCAUUUCUUCUCUGACAACAGGGGAGGUCAGAUGGAUGGUCAAGGACAAGGGGGGCUCUUUUGUGUUUUUUAUCACAAUCGCAGCAUCCAACAGAGGAUUGAGCAUCA
B4: chr10:33190432:33190433:-_ENSG00000150093_ENST00000302278|hu_mus|hu_hu_hu_mus_True|18_78 (ssRNA)
RNA: GGGAGUUCUACAGUCCGACGAUCUACAUUUUCCAAACCUGCAUGUGAAUAAAACCCUGGCAAUAUUGCCCCAAAACUACCCUACUGUGACUAAGAUGCUGCUGCUGUGAGCUUGGUUGUUGUGGGACCGCCUGAGUAGGAUUCCAACAGAGGAUUGAGCAUCA
B5: chr3:176740097:176740098:-_ENSG00000177565_ENST00000430069|hu_mus|hu_hu_hu_mus_True|38_78 (ssRNA)
RNA: GGGAGUUCUACAGUCCGACGAUCUGUUUUGUAUACCACAAAAGGAGGCACUUUCAGUAUCUGUAAAAGGUGUUUAGUCCUAAAACAUACUCACCUAGAGAAUAAUUCAGGAAAACAAUCUGUUACACUCUAAGACCUACUCCACAACAGAGGAUUGAGCAUCA
B6: chr16:94645698:94645699:+_ENSMUSG00000040785_ENSMUST00000117648|mus_mus|FALSE|FALSE (ssRNA)
RNA: GGGAGUUCUACAGUCCGACGAUCAUAUCCACGGCACUUCUGAUAGCAACAAACAGCAUCUGGCACUGGGGGAAACUUGCAUUCUUCAACAAACUUCUCUAACAUCACCUUGACUUUUUCUGGCUUAGAUUCUUCAAUAAUCACCAACAGAGGAUUGAGCAUCA
B7: 158363983_158364548_362_CDS_ENSG00000168827_ENST00000264263|human|control|control (ssRNA)
RNA: GGGAGUUCUACAGUCCGACGAUCUGUGAAGUCCACAUGCCCAGGAGUAUCUAUAAUGUUAAUAUUGACAUCUUUCCACAUGGUGUAAGUGGCUGCUGACUGAAUAGUGAUUCCUCUUUGUCUCUCUAGUUCCAUGGAAUCCAUCAACAGAGGAUUGAGCAUCA
B8: chr14:62224477:62224478:+_ENSMUSG00000035235_ENSMUST00000039562|mus_mus|motif|central (ssRNA)
RNA: GGGAGUUCUACAGUCCGACGAUCUUCACCAAAAAUGAAAAACCCAUCUGUCAUCUGUUCCCAGUAAAAAACAGAUUGUUCGGUAAAAUCAGCAGACUUAGUCAGGUAAGAAUUGAAGCUUGAAAGAUAGUCUUUCCAAGUUGCCAACAGAGGAUUGAGCAUCA
B9: chr1:60038506:60038507:+_ENSMUSG00000041040_ENSMUST00000036540|mus_hu|FALSE|FALSE (ssRNA)
RNA: GGGAGUUCUACAGUCCGACGAUCAGCUUCCUCAAUUGGUUCUGGUGGUGGGAGUAGAGAAGCUGAUGGCAUGACUGUACUUGUUCCUCGAGAGACUCGGUCUUGCUCUGUGUUUGUAGACAGGGAGGCCACAGCAAUAGGCUGCAACAGAGGAUUGAGCAUCA
B10: chr7:140402705:140402706:+_ENSG00000090266_ENST00000247866|hu_mus|FALSE|FALSE (ssRNA)
RNA: GGGAGUUCUACAGUCCGACGAUCUGAGCUUAAGAACUCACCCUGGAUCACCUGGGACCGGGUAAGCUGGGGAAACUCCCUGUACCGGGGCUGAAUAUGUACACCACCGCCAGCGUGACGGACUCCACUGUCUCCAGCCGCCCGCAACAGAGGAUUGAGCAUCA
B11: chrX:98614190:98614191:-_ENSMUSG00000031310_ENSMUST00000121520|mus_mus|FALSE|FALSE (ssRNA)
RNA: GGGAGUUCUACAGUCCGACGAUCUGGGGGAGCCCAUCCUCGACUUGGGGCAGUCUGAGAUUCCAGCAGAUCCUCUCCAAAUUCCAUGUCUACUGGAAGGUCUCCAGCCAGGGGCUUCUCUGGCAGGGUCAAUGGGUCAAAUGGCAACAGAGGAUUGAGCAUCA
B12: chr3:149686237:149686238:-_ENSG00000070087_ENST00000452853|perfect_dup|FALSE|FALSE (ssRNA)
RNA: GGGAGUUCUACAGUCCGACGAUCCUCCCCACCUUGACUCUUUGUCCGGAUGUCCAUUGUGCAGUCACCAUCAACGUAUAGGCUAUCUCUGAUCACAGAACACUUCUUUGCUCCAAGAGUCAAACCGUUGGUAAAGAAACCUUCCAACAGAGGAUUGAGCAUCA
B13: chr2:113286301:113286302:+_ENSG00000114999_ENST00000233336|hu_mus|motif|central (ssRNA)
RNA: GGGAGUUCUACAGUCCGACGAUCAGCCGGCUGCUGCGGCACCUGCUCCGUGUCCGGGGGUGGGAAGACACUGGAUAUGGCGGUGUCCACGAUGCCCUGGCACAGUUCUGCAUAGAGUUUCUGGGCACACGCUGGGGCGCCGUUCAACAGAGGAUUGAGCAUCA
B14: chr3:9412954:9412955:+_ENSG00000134077_ENST00000452837|hu_mus|hu_hu_hu_mus_False|78_78 (ssRNA)
RNA: GGGAGUUCUACAGUCCGACGAUCGGUUGAUAUCUCUUCUUUGAUGGCUGGAUUUUCAUAAUAAUCUAAGAUAUGUGAAUCUGAAGUGCUGCUGGCAUGCUUUUUCUUACCAUCUUUCUCAUCUGCUUUGUCUCCUUGUCCACACAACAGAGGAUUGAGCAUCA
B15: chr16:94690093:94690094:+_ENSMUSG00000040785_ENSMUST00000117648|mus_hu|FALSE|FALSE (ssRNA)
RNA: GGGAGUUCUACAGUCCGACGAUCGGGCUGGGAUGACGGACACACAGCCUCGAUUCCAGGGGGAAAAAGUCUUAGUCGAUACUAAUUAAAAAGUGUUAAUGAUUUUUGAAAAUCAGAUUACAUCUAUAAAAGAUGAAAAGCAAACAACAGAGGAUUGAGCAUCA
B16: chr16:45382771:45382772:-_ENSMUSG00000022661_ENSMUST00000163230|mus_mus|mus_mus_mus_hu_True|48_58 (ssRNA)
RNA: GGGAGUUCUACAGUCCGACGAUCCUGGGUCAUGUUAUAAGACAAAUGGACAGGGAGGGCAUGCUUCUCAAAAAAUGUGAACUACUCACUAAGACUAACAAUAUUUAUCUAGCUAUAAAAAUAAGUUAAAUGAAUAAGUUAAGACAACAGAGGAUUGAGCAUCA
B17: chr8:122032151:122032152:-_ENSMUSG00000031835_ENSMUST00000081381|mus_mus|FALSE|FALSE (ssRNA)
RNA: GGGAGUUCUACAGUCCGACGAUCCGGUGAAAUCAAGAUCCCCAAAUUACAAAACAUGAUGGCAGUUGAUAGUUAUAAAAAAAUAAAGCGAAGGCUUGCAUCUCCCACAUCCGCGCAAGUCCCCUUCAGUUCAGUGUGUCCUCCCAACAGAGGAUUGAGCAUCA
B18: chr12:48362563:48362564:+_ENSG00000134291_ENST00000256686|hu_hu|hu_hu_hu_mus_False|58_58 (ssRNA)
RNA: GGGAGUUCUACAGUCCGACGAUCUCCGUCAAGCCCUUCGAUAGACCCUUGCGGGGGAAACUGUAAUCACUUUGUAUUUCUAAAAAAAAGAAACGCCAAAAACUUUCCAAAAAGCGGGGGUGGGGUGAGGCGGGAGGGGGAGGUCAACAGAGGAUUGAGCAUCA
B19: chr5:132203191:132203192:+_ENSG00000164405_ENST00000378667|hu_hu|motif|central (ssRNA)
RNA: GGGAGUUCUACAGUCCGACGAUCAUUCUUCCUCUUGGAUCUCUCGAACUCUUCAGUCCCCCAUGUGUAGAUAAGAUAAAACACGGCAAACUGCGGCACCACGCGAAAGAAAGACUCCCGAAUGCGGCGCAGAACAUUGGGGAUCAACAGAGGAUUGAGCAUCA
B20: chr8:71331417:71331418:+_ENSMUSG00000031864_ENSMUST00000110241|mus_mus|FALSE|FALSE (ssRNA)
RNA: GGGAGUUCUACAGUCCGACGAUCCACCAGCAUCGUGGAGUAGAGCACUUGGUUUUUAUAGUUGUUGUGAGCUUCGCUGUCAAAGCUGUUCAUGUAUCUGCAGAGCUCCUUCAUCCGGUGCAGCAGGUCACUGCAGCUUCGUCUCAACAGAGGAUUGAGCAUCA
B21: chr7:141438946:141438947:+_ENSG00000106028_ENST00000265304|hu_mus|hu_hu_hu_mus_True|18_88 (ssRNA)
RNA: GGGAGUUCUACAGUCCGACGAUCGACGAAAUACCUGUAACACAGGUGAAACAUGGCUGGCUUCUGUUUUUCUUACAACCUAAUCUUUAGGCUUUUCCUAAAGGAAAGAAAGAAAAGGCCCAGCCACUAAAUCAAGAAACUACACAACAGAGGAUUGAGCAUCA
B22: 101114645_101114765_1358_CDS_ENSMUSG00000043154_ENSMUST00000075941|mouse|control|control (ssRNA)
RNA: GGGAGUUCUACAGUCCGACGAUCCACCUCAUUGCCACUUCCCUCACUGAUACUACCUCCCGACUUUUUCUUUAUGCAUUGUUUUAUGAUGUCUGUGCAUUUUUUCAAAUCUUCAGAGCAUUUCAGUAAGAUGUCCAAGCACAUCAACAGAGGAUUGAGCAUCA

Each binder was assayed against T1, UNK ZnF1-3 (human, UniProt Q9C0B0 31-174) (assay: nsRBNS (natural sequence RNA bind-n-seq); RBNS binding buffer (assumed for nsRBNS): 25 mM Tris pH 7.5, 150 mM KCl, 3 mM MgCl2, 0.01% Triton X-100, 500 ug/ml BSA, 20 U/ml SUPERase-In, 4 C; UNK is unkempt and MSI1 is Musashi-1; names of the RNAs are library labels; protein concentration not given here; high values mean tight binding).
T1 sequence: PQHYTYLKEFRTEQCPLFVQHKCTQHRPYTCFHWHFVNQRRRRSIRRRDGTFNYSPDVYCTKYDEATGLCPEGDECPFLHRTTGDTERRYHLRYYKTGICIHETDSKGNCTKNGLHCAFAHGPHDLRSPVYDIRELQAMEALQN

Row | Binder | binding signal
1 | B1 | 0.72 enrichment R
2 | B2 | 0.785 enrichment R
3 | B3 | 1.1 enrichment R
4 | B4 | 1.19 enrichment R
5 | B5 | 0.632 enrichment R
6 | B6 | 1.37 enrichment R
7 | B7 | 0.966 enrichment R
8 | B8 | 1.03 enrichment R
9 | B9 | 2.03 enrichment R
10 | B10 | 0.693 enrichment R
11 | B11 | 0.8 enrichment R
12 | B12 | 1.08 enrichment R
13 | B13 | 0.583 enrichment R
14 | B14 | 0.559 enrichment R
15 | B15 | 1.14 enrichment R
16 | B16 | 1.58 enrichment R
17 | B17 | 2.61 enrichment R
18 | B18 | 1.52 enrichment R
19 | B19 | 1.32 enrichment R
20 | B20 | 0.717 enrichment R
21 | B21 | 0.308 enrichment R
22 | B22 | 0.66 enrichment R
